PubChem BioAssay AID1347417 (National Center for Advancing Translational Sciences (NCATS), 2020)
About 5,300 (4.4%) of roughly 120,000 compounds were called active. This list was built around the results that the source calls inconclusive (neither active nor inactive); the mix of calls is not that of the screen. The call rests on the fitted dose curve; in most records, active means well fitted inhibition curve with a large enough effect; inconclusive means small, poorly fitted or top-dose-only effect; inactive means no such curve, though single readings can be large or run the other way. Where the call is inconclusive, the potency comes from a doubtful curve fit.

assay: qHTS Primary assay for Inhibitors of Plasmodium falciparum Dd2 growth in vitro; further: nearly all actives have a fitted effect of over 65% in size;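 on activity, negative = inhibition: plate controls were DMSO vehicle for no effect and reference drug for full effect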; details: P. falciparum Dd2 growth, SYBR Green, 72 h; activity, negative = inhibition: at 28.9 µM (top of the series) unless noted; series mostly up to 28.9 µM
Outline: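 Readout: SYBR Green fluorescence, 485 nm excitation, 535 nm emission, after ~16 h lysis at 37C. Before that, Dd2-infected red cells (2.5% hematocrit) grew 72 h with compound, 29 uM top final concentration.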
Potency means the concentration at half of the fitted maximal effect; tags describe the fitted curve by direction and shape.

| SMILES | Potency | outcome | activity, negative = inhibition |
| --- | --- | --- | --- |
| Cc1ccc2nc(-c3ccc(NC(=O)COc4c(C)ccc(C)c4C)cc3)sc2c1 | inconclusive: 17.8 µM [inhibitor, single point] | – | – |
| CN1CCN(C(CNC(=O)C(=O)Nc2ccc(F)cc2F)c2ccc3c(c2)OCO3)CC1 (stereo not given) | inconclusive: 17.8 µM [inhibitor, single point] | – | – |
| Nc1nc2c(s1)C(c1ccccc1)CC(=O)N2 (stereo not given) | inactive | – | – |
| Cc1ccccc1NC(=O)c1cc2cn(C(C)C)cc2s1 | active: 8.91 µM | – | – |
| O=C1N[C@@H]2CCN(C(=O)c3ccc(C(F)(F)F)cc3)[C@@H]2C(=O)N1c1ccc(F)cc1 | inactive | – | – |
| CNC(=O)N1C[C@@H](CN(C)C)[C@H](NC(=O)c2ccc(C(F)(F)F)cc2)C1 | inactive | – | – |
| O=C(Nc1cccc(F)c1)N1CCC(Oc2ccccc2-c2nc(-c3ccncc3)no2)C1 (stereo not given) | inconclusive: 3.98 µM [inhibitor, partial curve, poor fit] | – | – |
| Cc1cc(C(=O)N2CCC(c3noc(-c4ccccc4)n3)C2)n[nH]1 (stereo not given) | – | inactive [at 5.79 µM] | – |
| CCCc1noc(-c2cccn3c(CNC(=O)c4ccc(C)cc4)nnc23)n1 | active: 12.6 µM | – | – |
| COc1ccc(CNC(=O)CC[C@@H]2CNC(=O)[C@@H]3C[C@H](NCc4cn(C)c5ccccc45)CN23)cc1 | inactive | – | – |
| CC(C)CN1C(=O)c2cccn2CC1C(=O)NCCN(C)C1CCCCC1 (stereo not given) | inconclusive: 3.98 µM [inhibitor, single point] | – | – |
| Cc1ccc2c(CC(=O)Nc3ccccc3C(F)(F)F)coc2c1C | inconclusive: 0.0282 µM [inhibitor, full curve, poor fit] | – | – |
| CC(CNC(=O)C1CCN(Cc2cc3ccccc3n2Cc2ccccc2)CC1)c1ccccc1 (stereo not given) | inconclusive: 17.8 µM [inhibitor, single point] | – | – |
| COc1cc(NC(=O)CCS(=O)(=O)c2nc(-c3cccs3)cc(C(F)(F)F)n2)cc(OC)c1OC | inconclusive: 11.2 µM [inhibitor, partial curve, poor fit] | – | – |
| O=C(O)c1cccc(-c2ccsc2)c1 | inactive | – | – |
| CN1C(=O)C2(CCN(Cc3ccc(C#N)cc3)C2)c2ccccc21 (stereo not given) | inconclusive: 10 µM [inhibitor, single point] | – | – |
| COc1ccc(C(=O)NCCc2ncc(C)n2C2CCC2)c(OC)n1 | inconclusive: 3.55 µM [inhibitor, full curve] | – | – |
| COc1ccc(C(=O)c2cn(Cc3ccc(C)cc3)c3cc4c(cc3c2=O)OCO4)cc1 | inconclusive: 20 µM [inhibitor, single point] | – | – |
| CCC(=O)N1CCc2cc(S(=O)(=O)NCCC(=O)Nc3ccc(OC)c(Cl)c3)ccc21 | inconclusive: 0.0708 µM [inhibitor, full curve, poor fit] | – | – |
| CCc1cccc(NC(=O)c2ccc3c(c2)N(CC)C2CCCCCN2C3=O)c1 (stereo not given) | active: 5.62 µM | – | – |
| CCn1cc(-c2c(-c3ccccc3)ncn2C(CO)C(=O)O)cn1 (stereo not given) | inactive | – | – |
| COc1ccc(CCNC(=O)c2cc(-c3ccccc3)nc3ccccc23)cc1OC | inconclusive: 10 µM [inhibitor, single point] | – | – |

| SMILES | Potency | outcome | activity, negative = inhibition |
| --- | --- | --- | --- |
| O=C(NC1CCCC1)N1CCC(c2noc(-c3ccccc3)n2)C1 (stereo not given) | – | – | inactive: 13.8% [at 5.79 µM] |
| COc1cccc(C(=O)N2CCCC(n3cc(-c4noc(C)n4)nn3)C2)c1 (stereo not given) | inactive | – | – |
| CCCn1cc(-c2ccnc(NC3CCN(Cc4ccccn4)CC3)n2)c(C)n1 | inconclusive: 12.6 µM [inhibitor, single point] | – | – |
| COc1ccc(CN2CCOC[C@H]2c2ncc(-c3cccc(F)c3)[nH]2)cc1 | inconclusive: 15.8 µM [inhibitor, partial curve, poor fit] | – | – |
| Cc1ccc(CNC(=O)c2ccc3c(c2)N(Cc2ccccc2F)C(=O)c2ccccc2S3(=O)=O)cc1 | inactive | – | – |
| CC(=O)Nc1ccc(S(=O)(=O)N2Cc3ccccc3OC3(CCN(C(=O)NC(C)C)CC3)C2)cc1 | inconclusive: 11.2 µM [inhibitor, partial curve] | – | – |
| O=C1CNc2ccc(C(=O)N3C[C@H](CO)C[C@H](CN4CCCC4)C3)cc2N1 | inactive | – | – |
| COc1ccc(S(=O)(=O)c2cn(C)c3cc(N4CCCC4)c(F)cc3c2=O)cc1 | inconclusive: 12.6 µM [inhibitor, single point] | – | – |
| CC1=C[C@@H](CNC(=O)CCCC(=O)O)[C@H](C(C)C)C[C@H]1Cc1nc2ccc(F)cc2[nH]1 | inconclusive: 12.6 µM [inhibitor, single point] | – | – |
| C#C[C@H]1CN2CC[C@H]1C[C@@H]2CNC(=O)Nc1ccc(C(C)=O)cc1 | inconclusive: 11.2 µM [inhibitor, partial curve, poor fit] | – | – |
| CCCC12CN3CC(CCC)(CN(C1)C3c1c[nH]c3ccccc13)C2=O (stereo not given) | inconclusive: 17.8 µM [inhibitor, single point] | – | – |
| O=C(Cc1ccc(F)cc1)N1CCn2c(nn(-c3ccc(F)cc3)c2=O)C1 | inconclusive: 8.91 µM [inhibitor, partial curve, poor fit] | – | – |
| Cc1cccc(CCNC(=O)c2noc(-c3ccc4c(c3)OCO4)n2)c1 | inactive | – | – |
| O=C(COc1ccccc1)Nc1ccc(S(=O)(=O)N(Cc2ccccc2)c2ccccc2)cc1 | inconclusive: 3.98 µM [inhibitor, partial curve, poor fit] | – | – |
| COC(=O)CNC(=O)C(Cc1ccccc1)NS(=O)(=O)c1ccc2c(c1)c(=O)n(C)c(=O)n2C (stereo not given) | inconclusive: 10 µM [inhibitor, single point] | – | – |
| Cc1c(Cl)cccc1NC(=O)c1cnc2sc(N3CCCC3)nn2c1=O | inactive | – | – |
| CCN(C(=O)C1CCN(S(=O)(=O)c2ccc3c(c2)CCCN3C(=O)C2CCC2)CC1)c1cccc(C)c1 | inconclusive: 2.82 µM [inhibitor, full curve] | – | – |
| Cn1nc(-c2ccccc2)cc1[C@H]1CN2CC[C@H]1C[C@@H]2CNC(=O)Nc1ccccc1 | inconclusive: 12.6 µM [inhibitor, partial curve, poor fit] | – | – |
| CCC(=O)N1Cc2ccccc2CC2(CCCN2CC2CCCC2)C1 (stereo not given) | inconclusive: 11.2 µM [inhibitor, single point] | – | – |
| O=C(NCc1ccccc1)N1CC(c2nc(CCOCC3CCCC3)no2)C1 | inconclusive: 17.8 µM [inhibitor, single point] | – | – |
| CCOc1ccc(CNC(=O)c2c(C)nn(-c3ccc(F)cc3)c2-n2cccc2)cc1 | inactive | – | – |
| N#Cc1ccc(S(=O)(=O)N2CCC(C(=O)N3CCCCCCNC(=O)CC3)CC2)cc1 | inconclusive: 17.8 µM [inhibitor, single point] | – | – |

| SMILES | Potency | outcome | activity, negative = inhibition |
| --- | --- | --- | --- |
| CCNc1ncnc2sc3c(c12)CCN(S(=O)(=O)c1ccccc1)C3 | inconclusive: 10 µM [inhibitor, single point] | – | – |
| O=C(Nc1cccc2ccccc12)O[C@@H]1CO[C@H]2[C@@H]1OC[C@@H]2n1nnnc1-c1ccc(-c2ccccc2)cc1 | inconclusive: 1.58 µM [inhibitor, full curve, poor fit] | – | – |
| CC1(c2ccccc2)N(Cc2ccccc2)C(=O)OC12CCN(Cc1ccccn1)CC2 (stereo not given) | inconclusive: 2.82 µM [inhibitor, partial curve] | – | – |
| Cc1noc(Cn2c(=O)c3cc4c(cc3n(CC(=O)Nc3cccc(Cl)c3)c2=O)OCO4)n1 | inconclusive: 17.8 µM [inhibitor, single point] | – | – |
| COc1ccc(CCC(=O)N2CC[C@H](CO)[C@H](O)C2)cc1OC | inactive | – | – |
| C=CCn1cc2c3c(cccc31)[C@H](CC(C)C)N[C@H](C(=O)N1CCN(C)CC1)C2 | inconclusive: 2.51 µM [inhibitor, partial curve, poor fit] | – | – |
| CNC(=O)[C@@H]1C[C@H](Oc2cccnc2)CN1S(=O)(=O)c1ccc2c(c1)CCC2 | inconclusive: 1.12 µM [inhibitor, partial curve] | – | – |
| Cn1cc(C2c3nccn3CCCN2C(=O)c2cccn2C)cn1 (stereo not given) | inactive | – | – |
| COc1ccccc1CNC(=O)c1ccc2c(c1)sc1nc(-c3ccc(F)cc3)cn12 | inconclusive: 17.8 µM [inhibitor, single point] | – | – |
| Clc1cccc(CN2CC[C@H](c3nc4ncccc4[nH]3)C2)c1 | inconclusive: 31.6 µM [inhibitor, single point] | – | – |
| COCCOC1CCN(C(=O)NCCc2ccccc2)CC1 | inactive | – | – |
| Cc1ccc(C(=O)N2CCCC(n3cc(-c4nc(-c5ccccc5)no4)nn3)C2)cc1 (stereo not given) | inconclusive: 1.26 µM [inhibitor, full curve, poor fit] | – | – |
| Cc1ccc(-c2nn(CC(=O)NC3CCCCC3)c3c2cnc2ccc(F)cc23)cc1C | inconclusive: 3.98 µM [inhibitor, single point] | – | – |
| CCOc1cccc2cc(-c3nnc(Nc4ccc(F)c(Cl)c4)s3)c(=O)oc12 | inactive | – | – |
| COCCN1CCC(N2CCN(S(=O)(=O)c3ccccc3C)CC2)C1=O (stereo not given) | inactive | – | – |
| Cc1[nH]c2ccccc2c1C(=O)C(=O)NC1CC(=O)N(c2cccc(F)c2)C1 (stereo not given) | inactive | – | – |
| CCCNC(=O)N1CCCC2(CCC(=O)N(CCc3cnc[nH]3)C2)C1 (stereo not given) | inactive | – | – |
| O=C(NCCc1cccnc1)C1CCCN(C2CCOCC2)C1 (stereo not given) | inactive | – | – |
| CC(C)(C)c1nc(C(=O)NCc2ccc(F)cc2)n2ccncc12 | inconclusive: 20 µM [inhibitor, single point] | – | – |
| CCc1ccc(OC(C)C(=O)Nc2c(C(=O)c3ccccc3)oc3ccccc23)cc1 (stereo not given) | inconclusive: 11.2 µM [inhibitor, single point] | – | – |
| c1ccc(-c2cnc([C@@H]3COCCN3Cc3ccncc3)[nH]2)cc1 | inconclusive: 8.91 µM [inhibitor, partial curve] | – | – |
